Assay results: the supplement of paper PMC11417369
± gives the standard deviation of the averaged measurements. This is one part of the list.

System: PfAP2-I AP2 domain 3 (GST-tagged)
Assay: gcPBM binding intensity (ln(normalized median fluorescence intensity)); higher = stronger DNA binding
Method in brief: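 The binding buffer was 1× PBS containing 1% milk, 0.2 mg/ml BSA, 0.5% salmon testes DNA and 0.03% Triton X-100. In it, GST-tagged P. falciparum DNA-binding domains expressed in E. coli were applied for 1 h to an Agilent 4 × 180k array of primer-extended double-stranded 36-bp intergenic genomic probes plus negative controls. Binding intensity, read with Alexa488 anti-GST antibody and a 488 nm scan, is the highest Masliner-normalised natural-log median intensity across replicate spots of either probe orientation.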

Row | Sequence | gcPBM binding intensity (ln)
1 | ATAAATATAACATATTGTACCCTTAAAAAGGAACAA [XGTACX_site352] | 7.62 ± 0.18
2 | AAATGTATAATTTTTTAATACACTTATTTAAAATAA [CACACA_negctrl_site797] | 7.84 ± 0.35
3 | GTACCAACAGCACTACTTCTCGCCATTTTCTTGTAG [XGTACX_negctrl_site97] | 8.95 ± 0.4
4 | GAGAGGATAGTTCACAGTACCCAGTAACTCTACGGA [XGTACX_site4876] | 7.46 ± 0.57
5 | CTCAAATAACTTTTTACACACATTATTTGAAATAAG [CACACA_site6722] | 7.79 ± 0.43
6 | CAGAATACATACATTACACACAAATTTAAGTATATA [CACACA_site1781] | 7.54 ± 0.47
7 | ATATGAATGATCGTACGTACTTACATATTTATAAAG [XGTACX_site8041] | 7.86 ± 0.42
8 | ATATCTATAATAAACACACAAATAGATATAACATAT [CACACA_site7702] | 7.82 ± 0.66
9 | AAAAAAAAATTAAAAACACACATATATATATATATA [CACACA_site1580] | 9.41 ± 0.11
10 | TAAGTATATTTCTGCACACAAAAAAAAAAACCAAAA [CACACA_site4056] | 8.815 ± 0.035
11 | AAAATTTAATATGAATGTACATAAAAAAAAAAAAAA [XGTACX_site6719] | 8.13 ± 0.45
12 | TATATATATATATATGTGCACATTTATTGCCTTTGC | 9.76
13 | TATAAATAAAGACTTTTTTCTAACTTTTTTTTGTAT [CACACA_negctrl_site1015] | 7.41 ± 0.64
14 | ATACACAAATGCATACGTACATATATATATATATAT [XGTACX_site3504] | 9.34 ± 0.57
15 | AAAAAAAAAAAAACAACACACAATGTTTTATTTTAC [CACACA_site1613] | 7.99 ± 0.57
16 | TAAAACAAAATAACATGTACAAAAAAAAAAAAAAAA [XGTACX_site2915] | 8.02 ± 0.62
17 | ATGTAATATGTTCATGCATGTAAAATTACATTTAGA [TGCATGCA_site852] | 7.74 ± 0.62
18 | CATATAAGAATCTTCTGTACTTATAAGAAAAGACAT [XGTACX_site8135] | 7.89 ± 0.48
19 | GGACGTATTAAAAGGCGTACACTAAATATTTTATGT [XGTACX_site146] | 8.06 ± 0.34
20 | TAATATTTATATAATTGTACTTTGTTTGTAAATCCA [XGTACX_site7292] | 7.58 ± 0.43
21 | AAGATAATTACGCACACACACACACGCCCACAACTA [CACACA_site7255] | 9.515 ± 0.064
22 | ATTATAATTTTGTAAAGTACATATTATTATATATTA [XGTACX_site7191] | 7.42 ± 0.3
23 | AAGGTAAAATATAAGTGTACTTTTTCTTAATCTTCG [XGTACX_site514] | 7.69 ± 0.24

Row | Sequence | gcPBM binding intensity (ln)
24 | ATATATAATATAATATGTACATATAATCAATCCTGT [XGTACX_site8694] | 7.94 ± 0.3
25 | ATTTAGTATTCGAAACGTACACATATATATATATAT [XGTACX_site3910] | 9.3 ± 0.32
26 | ATATTTTTTTTCTTCACACACATGAGTTATAAATAA [CACACA_site7498] | 8.23 ± 0.69
27 | AATGAAACAATACCCAGTAAAAAAAAAAAATAAATA [TGCATGCA_negctrl_site205] | 7.47 ± 0.71
28 | TGTAATCTGGAGAAGAGTACACAGTATCTGGTAGCT [XGTACX_site4935] | 7.62 ± 0.64
29 | GCAAAATAAAGAAGCACACAAAAATGAAATATATAT [CACACA_site3651] | 7.95 ± 0.8
30 | CATATTTATAAATATAAACACACAACATTATATGCA [CACACA_site9065] | 7.71 ± 0.42
31 | TTTAATTAATAATAATATAAATTGTTCTTTTTTTTT [GTGCAC_negctrl_site176] | 6.96 ± 0.46
32 | ACTAGTAAATTTATATGTACATATATATATATATAG [XGTACX_site2502] | 8.02 ± 0.54
33 | AAAAAAAATACATACATACACACATATATATATATA [CACACA_site912] | 9.33 ± 0.31
34 | TCTTGGTATATTCAATATATGATTTATATAATTCAA [CACACA_negctrl_site818] | 7.67 ± 0.49
35 | ATTTATATATATCATACACACTAATATGTATATTAT [CACACA_site5816] | 7.8 ± 0.37
36 | TATACGTAATAATATGCACACAAATAAACTTTATAA [CACACA_site9166] | 8.87 ± 0.085
37 | TTATTTTTTTCAACAAGTACTAATACAAAATAAAAC [XGTACX_site6460] | 8.06 ± 0.44
38 | GATTAAATCGATAATACACACTAAATGTAAAACATT [CACACA_site4248] | 7.87 ± 0.36
39 | TTGTATTATTAAATTATAAAACCTATAATTATGGAT [GTGCAC_negctrl_site340] | 7.55 ± 0.27
40 | TGATAACTAAATACATGTACAAATTAAAAAGAAAAA [XGTACX_site3080] | 7.66 ± 0.72
41 | TAATGATTATATGACTGTACATTTGTAGGTATAATT [XGTACX_site3373] | 7.9 ± 0.42
42 | GTACATATAAATATTACACACATTTTCATTTTTAAC [CACACA_site1986] | 8.12 ± 0.25
43 | AAATCGAACAAATTATGTACTAAAAAAAAAATTTAT [XGTACX_site6399] | 7.68 ± 0.54
44 | TTATATGCATCCAAAAAGGAATGTTTTTAGAGAATC [CACACA_negctrl_site1062] | 7.63 ± 0.67
45 | ATCTTTCGAACATGTACACACAGAAAAAAAAAAAAA [CACACA_site5393] | 8.29 ± 0.48
46 | TGTATAGGTACAATAATTATAGAGTAATTGACATTA [GTGCAC_negctrl_site183] | 7.8 ± 0.49

Row | Sequence | gcPBM binding intensity (ln)
47 | TAAAAAGTATATGGTCGTACACTTTTGATTAATACA [XGTACX_site7804] | 7.58 ± 0.45
48 | GTGTAGGCAAAAAGTTGTACGCCTAAAATCTATATA [XGTACX_site8912] | 8.18 ± 0.19
49 | ACTCTCTTATATTAAACACACATATATATATGTATA [CACACA_site2703] | 8.26 ± 0.56
50 | TCAAACAAAAAAGAAACACACACTAATTAAATTTTC [CACACA_site1101] | 7.54 ± 0.88
51 | AATAATTTGAAGGTGATAGTATTACATGGGAAATCA [CACACA_negctrl_site301] | 7.87 ± 0.64
52 | AACACCAAACAAAGGTGTACATATAGGAAAAAATCT [XGTACX_site1006] | 7.81 ± 0.69
53 | TATCACATATTATGATGTACAAAGATTCTGACTAAT [XGTACX_site2770] | 7.46 ± 0.49
54 | TACACGCAGAAACACACACACACACCCATATATATA [CACACA_site637] | 8.46 ± 0.65
55 | TTTCCTTATAAAAATACACACAAACTTTCATTAAAA [CACACA_site5953] | 7.55 ± 0.47
56 | TCATATTATTATATATGTACATACCAATATATTATA [XGTACX_site2988] | 7.82 ± 0.45
57 | TAGATATGTCTAAAAAGTACTTTCTATAACAATTCT [XGTACX_site6678] | 7.42 ± 0.51
58 | AGAGGGGAAAACATGATGCACTAGTATAACCAAGAA | 10.1 ± 0.16
59 | AGAGAAGAAAACAAAACACACACATATATCTTAATA [CACACA_site8699] | 7.76 ± 0.79
60 | AACTTAAAAAAAAAAAAAAAAAAAAAAAAAAAAAAA [GTGCAC_negctrl_site34] | 8.44 ± 1.1
61 | CCCAATAATTAAACAACACACATATATATCTGTAAT [CACACA_site5667] | 7.88 ± 0.57
62 | ATAAAATGGGCAAACACACACAAAAAAAAGATATAT [CACACA_site1648] | 8 ± 0.58
63 | AGGGGCGAAACAAAGGTGCTTTTATAAAATATGTAA | 9.79
64 | AGAAATCATCTGAATTGTACTAACAATTTTTTTTAA [XGTACX_site6191] | 7.49 ± 0.44
65 | TATTATAATAAAATATGTACACACATACACACATAT [XGTACX_site2360] | 7.98 ± 0.41
66 | CTTAAATCTACTATTTGTACATATTTTATTATTAAA [XGTACX_site6151] | 7.86 ± 0.32
67 | TAGATAAAATTAAAATGTACAAACCTTTTCCCTTAT [XGTACX_site1136] | 7.62 ± 0.31
68 | TATATATATATAAAGGTGCATATCTTTACGTATGTC [GTGCAC_site9665] | 10.4 ± 0.23
69 | ATATATATATATGATACATGCATATATTTTTTCTTC [TGCATGCA_site216] | 9.1 ± 0.13

Row | Sequence | gcPBM binding intensity (ln)
70 | TTTTTTTTATCAAATTGTACATATACAAAGGTGATC [XGTACX_site8054] | 7.73 ± 0.33
71 | ATTTTATTTTTTAATAGTACTCATTTTTTATGTGAA [XGTACX_site5494] | 7.75 ± 0.43
72 | ATATATATATATATATGTACTTATTTATTTTATATA [XGTACX_site8810] | 9.35 ± 0.49
73 | AGCATATATTAAACATGTACATAAATATATTATATA [XGTACX_site1451] | 7.99 ± 0.2
74 | GAATGAATGATAAATTTTTTTTTCTTTTTTTTTTTG [CACACA_negctrl_site333] | 7.09 ± 0.59
75 | TGTTATATATATACAAACATACACATTTATAAACAA [TGCATGCA_negctrl_site235] | 7.75 ± 0.56
76 | TATTAATTTCTTTTTTCTCATCACTTTCAAAATGAA [CACACA_negctrl_site1055] | 7.9 ± 0.47
77 | TTATGATCATTTATATGTACACATAATTTTTGTGCT [XGTACX_site5568] | 7.75 ± 0.49
78 | GTTCAAATTCTTATACCTTTTTATTGAGCCATAATA [CACACA_negctrl_site210] | 7.92 ± 0.68
79 | AAAAAAAGAAAAAAAACACACACAAATATAAATAAA [CACACA_site8309] | 7.48 ± 0.59
80 | CCAAATTTATAAAGAACACACACATATATATATATA [CACACA_site7900] | 9.29 ± 0.18
81 | TATACATATTTAATATGTACATAATAATACTTATTC [XGTACX_site6939] | 7.46 ± 0.4
82 | AAGCATGTAGAATAATGTACTTGTGATTTTAATATA [XGTACX_site8565] | 7.45 ± 0.27
83 | AAAAAAAAAATACAGGTGCAATAAGAAAAAAATGGT | 11.4 ± 0.57
84 | TATATTAACAAAATGGTGCAATAATTTCTATATTAT [GTGCAC_site9857] | 11.3 ± 0.61
85 | AAAAATAAAAAAATAATAAAATAAAAAATAAAAAAT [TGCATGCA_negctrl_site89] | 7.57 ± 0.68
86 | TAAAAAAACATATATTGTACGGAGATAATAATTTTT [XGTACX_site2946] | 7.67 ± 0.72
87 | ATGTATAAACATATATGTACTTAAATAAAATGTTAA [XGTACX_site4044] | 7.92 ± 0.27
88 | CACCAATTCATATGCACACACATCTGCATATTATAT [CACACA_site1773] | 9.06 ± 0.28
89 | ATTAAAAGAACAATGTAAAAAAAGCAAATTAAAGAT [TGCATGCA_negctrl_site360] | 8.13 ± 0.73
